Reference: publication PMC12040169 (PLOS Biology, 2025)
This is one part of the list.

System: T1, C. trachomatis L2/434/Bu expressing GFP (CTL2-GFP)
T1 construct: L2/434/Bu GFP intracellular growth in HeLa cells
Set-up: species or system HeLa; C. trachomatis total inclusion area by high-content imaging, normalised to DMSO
Details: total inclusion area; 28.5 h, 10 µM; inhibitor
How it was run: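 High-content imaging followed the bulk GFP/resorufin measurement: fixed, Hoechst-stained cells were scored for GFP inclusions and host nuclei per well. Total inclusion area and count served as growth proxies, nuclei number as the viability proxy. MIC calculation matched the bulk assay.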

Structure (SMILES) | % of control remaining
CCC(C)N(C)CCNC(=O)Nc1ccc(F)c(-n2nnnc2C)c1 (centres unmarked) [CBK305176] | 38.5124
C[C@H](Nc1cncc(-c2ccccc2CO)n1)c1ccccc1 [CBK065520] | 95.6142
COc1ccc(OC)c(NC(=O)CSc2nnc(-c3ccncc3)s2)c1 [CBK269209] | 110.752
Cn1ncc2c1CCCN(C(=O)COc1ccccc1F)C2 [CBK285324] | 118.732
CSc1nc(-c2ccccc2)nc(N)c1C(C)=O [CBK270762] | 133.709
Oc1[nH]nc2c1CCC2 [CBK260873] | 85.662
CC(=O)Nc1ccc(CCC2(NC(=O)C3CC3)CCCCC2)cn1 [CBK282290] | 89.058
CN1CCN(NC(=O)c2cc(-c3ccc(Cl)cc3)[nH]n2)CC1 [CBK116553] | 91.0742
O=C(Nc1nc2c(s1)CCCC2)c1ccccc1 [CBK287326] | 99.9131
CC(C)Oc1ccc(CCNC(=N)NC(=N)N)cc1Cl [CBK263966] | 64.3372
CC(C)(O)C1CCCN(C(=O)c2coc(COc3cccc(F)c3)n2)C1 (centres unmarked) [CBK306977] | 100.651
Cn1c(SCCC(=O)O)nnc1-c1cccnc1 [CBK269077] | 76.1433
NC(=O)CN1CC2(CCNCC2)c2ccccc21 [CBK116314] | 93.5074
N=C1NC(=O)/C(=C/c2c(OS(=O)(=O)c3ccc(Cl)cc3)ccc3ccccc23)S1 [CBK265311] | 101.668
O=C(c1sc2ccccc2c1C1CCN(Cc2ccccc2F)C1)N1CCOCC1 (centres unmarked) [CBK286260] | 105.521
O=C(C1CCC1)N1CCC(c2nnc3n2CCCCC3)CC1 [CBK284625] | 125.624
OCCN1CCN(CC(O)COCC2COc3ccccc3O2)CC1 (centres unmarked) [CBK027374C] | 88.3677
N#CCCN(C(=O)NCc1ccc(F)cc1)C1CCCCC1 [CBK156372] | 77.168
O=C(NC1CC(=O)N(CCc2ccc(F)cc2)C1)c1cn2ccsc2n1 (centres unmarked) [CBK307263] | 25.0433
CC(=O)N1CCC(c2c(C(=O)Nc3cccc(CN4CCCC4)c3)sc3ccccc23)C1 (centres unmarked) [CBK285892] | 78.7064
Fc1cccc(-c2nccnc2NCCc2c[nH]c3ccccc23)c1 [CBK036861] | 114.322
O=C(O)CC1S\C(=N/N=C\C=C/c2ccccc2)N(c2ccc(O)cc2)C1=O (centres unmarked) [CBK263688] | 110.963
Cc1sc2nc(SCc3cc(O)[nH]n3)nc(N)c2c1C [CBK264585] | 108.84
N=c1n(CC(=O)O)c2ccccc2n1Cc1ccc(Cl)cc1 [CBK262897B] | 93.2868
O=C(Nc1cc([N+](=O)[O-])ccc1O)c1ccc2c(c1)C(=O)N(Cc1cccnc1)C2=O [CBK266770] | 90.0697
Cc1cnc(C)c(N2CCN(C(=O)NCCSc3nncn3C)CC2)n1 [CBK306531] | 86.5346
CN(C)CCn1c(=O)oc2ccc(NC(=O)C3CCCO3)cc21 (centres unmarked) [CBK304913] | 38.4925

Structure (SMILES) | % of control remaining
CCn1c2cc(C)sc2c2cnn(CC(=O)OC)c(=O)c21 [CBK284186] | 79.8187
Cc1cc(C)n(-c2cccc(CN3CCC(CO)C3)c2)n1 (centres unmarked) [CBK282928] | 110.027
O=C(O)Cc1ccc(-n2c(S)nnc2-c2ccncc2)cc1 [CBK268860] | 105.674
O=C1CC(Nc2ccc(N3CCOCC3)cc2)C(=O)N1CCc1ccccc1 (centres unmarked) [CBK269339] | 62.1494
O=C(Nc1cccc2ccccc12)O[C@@H]1CO[C@H]2[C@@H]1OC[C@@H]2NC(=O)c1cccs1 [CBK289468] | 86.4049
Oc1cccc(/C=N/c2ccc(Cc3ccc(/N=C/c4cccc(O)c4)cc3)cc2)c1 [CBK261230] | 91.0098
c1ccc2c(c1)OCC(COc1ccnc(N3CCCN(CC4CCCCC4)CC3)n1)O2 (centres unmarked) [CBK083982] | 43.6869
Nc1ncc(-c2cccc(C(=O)O)c2)nc1N1CCOCC1 [CBK063415] | 116.017
CCCC/C=C/c1cncc(NCc2cccc(Cl)c2)n1 [CBK065293] | 111.954
O=C(O)COc1cccc2ccccc12 [CBK218704] | 123.19
Cc1cc(C)cc(NC(=O)CC2Sc3ccccc3NC2=O)c1 (centres unmarked) [CBK266384] | 127.789
CCCNC(CC(=O)Nc1ccccc1)C(=O)O (centres unmarked) [CBK266819] | 108.699
CCC1CCc2c(sc(NC(=O)C3C4CCC(C4=C(C)C)C3C(=O)O)c2C(=O)OC)C1 (centres unmarked) [CBK265424] | 102.254
O=C(O)COc1ccc(-c2nnn(CC(=O)O)n2)cc1 [CBK267124] | 121.923
Cc1c(C(=O)O)sc(S(=O)(=O)N2CCN(C(=O)Cc3ccccc3Cl)CC2)c1C(=O)O [CBK297137] | 88.9393
COc1ccc([C@@]23CCC(N)C[C@@H]2N(C)CC3)cc1OC (some centres unmarked) [CBK003576] | 62.0546
CCOC(=O)NC(Nc1nc2ccccc2s1)(C(F)(F)F)C(F)(F)F [CBK008913] | 113.129
O=C(O)C1(Oc2ccc3ncccc3c2)CCN(Cc2ccoc2)CC1 [CBK307598] | 78.6442
OCCCNC(=S)NCCc1ccccc1 [CBK264869] | 109.761
CN(C)C(=O)CN1C(=O)N2CCN=C2c2ccccc21 [CBK283961] | 94.3099
CCOC(=O)c1c(/N=C/c2cc(I)cc(I)c2O)sc2c1CCN(Cc1ccccc1)C2 [CBK262246] | 72.223
O=S(=O)(Nc1nnc(C(F)(F)F)s1)c1ccc(Br)cc1 [CBK200047] | 86.5097
O=C(Cc1csc(-c2ccc(Cl)cc2)n1)NCCN1CCCC1 [CBK107306] | 108.106
CCCCn1c(SCC(O)COCc2ccc(OC)c(OC)c2)n[nH]c1=O (centres unmarked) [CBK296653] | 98.1567
O=C(Cn1ccnc1)Nc1ccccc1Oc1ccc(F)cc1 [CBK281455] | 101.36
CCC1CCC2(CC1)NC(=O)N(CC(=O)Nc1nccs1)C2=O (centres unmarked) [CBK305936] | 60.1839
